# Measurements as given in the supplement of paper PMC8728848.
# The other results are listed elsewhere or left out.
# Experiments:
# Test in all cases: glycan array binding signal (z-score within array); higher = stronger binding
# Details in all cases: glycan notation: IUPAC condensed, linker removed
# [1] = molecular target: Gal(b1-4)GlcNAc(b1-2)Man(a1-6)[Man(a1-3)]Man(b1-4)GlcNAc(b1-4)GlcNAc
# Outline: (§1)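 Glycan array data were curated from 3228 arrays in the Consortium for Functional Glycomics database and kept only where the protein sequence was available. Glycan names were converted to IUPAC-condensed notation, and columns mapping to the same glycan were averaged. The binding signal is a within-array Z-score, averaged across arrays of the same protein sequence at different concentrations or buffers and across linkers. Negative Z-scores can be read as non-binding.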
# [2] = molecular target: Gal(b1-4)GlcNAc(b1-2)[Gal(b1-4)GlcNAc(b1-4)]Man(a1-3)[Gal(b1-4)GlcNAc(b1-2)Man(a1-6)]Man(b1-4)GlcNAc(b1-4)GlcNAc
# Outline: as §1
# [3] = molecular target: Gal(b1-4)GlcNAc(b1-2)[Gal(b1-4)GlcNAc(b1-4)]Man(a1-3)[Gal(b1-4)GlcNAc(b1-2)[Gal(b1-4)GlcNAc(b1-6)]Man(a1-6)]Man(b1-4)GlcNAc(b1-4)GlcNAc
# Outline: as §1
# [4] = molecular target: Gal(b1-4)GlcNAc(b1-2)[Gal(b1-4)GlcNAc(b1-4)]Man(a1-3)[GlcNAc(b1-4)][Gal(b1-4)GlcNAc(b1-2)Man(a1-6)]Man(b1-4)GlcNAc(b1-4)GlcNAc
# Outline: as §1
# [5] = molecular target: Gal(b1-4)GlcNAc(b1-2)[Gal(b1-4)GlcNAc(b1-4)]Man(a1-3)[GlcNAc(b1-4)][Gal(b1-4)GlcNAc(b1-2)[Gal(b1-4)GlcNAc(b1-6)]Man(a1-6)]Man(b1-4)GlcNAc(b1-4)GlcNAc
# Outline: as §1
# [6] = molecular target: Gal(b1-4)GlcNAc(b1-2)[Gal(b1-4)GlcNAc(b1-6)]Man(a1-6)[Gal(b1-4)GlcNAc(b1-2)Man(a1-3)]Man(b1-4)GlcNAc(b1-4)GlcNAc
# Outline: as §1
# [7] = molecular target: Gal(b1-4)GlcNAc(b1-2)[Gal(b1-4)GlcNAc(b1-6)]Man(a1-6)[Gal(b1-4)GlcNAc(b1-2)Man(a1-3)]Man(b1-4)GlcNAc(b1-4)[Fuc(a1-6)]GlcNAc
# Outline: as §1
# [8] = molecular target: Gal(b1-4)GlcNAc(b1-2)[Gal(b1-4)GlcNAc(b1-6)]Man(a1-6)[GlcNAc(b1-4)][Gal(b1-4)GlcNAc(b1-2)Man(a1-3)]Man(b1-4)GlcNAc(b1-4)GlcNAc
# Outline: as §1
# [9] = molecular target: Gal(b1-4)GlcNAc(b1-2)[Gal(b1-4)GlcNAc(b1-6)]Man(a1-6)[GlcNAc(b1-4)][Gal(b1-4)GlcNAc(b1-2)[Gal(b1-4)GlcNAc(b1-4)]Man(a1-3)]Man(b1-4)GlcNAc(b1-4)[Fuc(a1-6)]GlcNAc
# Outline: as §1
# [10] = molecular target: Gal(b1-4)GlcNAc(b1-3)Gal(b1-3)GalNAc
# Outline: as §1
# [11] = molecular target: Gal(b1-4)GlcNAc(b1-3)Gal(b1-3)GlcNAc
# Outline: as §1
# [12] = molecular target: Gal(b1-4)GlcNAc(b1-3)Gal(b1-4)Glc
# Outline: as §1
# [13] = molecular target: Gal(b1-4)GlcNAc(b1-3)Gal(b1-4)GlcNAc
# Outline: as §1
# [14] = molecular target: Gal(b1-4)GlcNAc(b1-3)Gal(b1-4)GlcNAc(b1-2)Man(a1-3)[Gal(b1-4)GlcNAc(b1-3)Gal(b1-4)GlcNAc(b1-2)Man(a1-6)]Man(b1-4)GlcNAc(b1-4)GlcNAc
# Outline: as §1
# [15] = molecular target: Gal(b1-4)GlcNAc(b1-3)Gal(b1-4)GlcNAc(b1-2)Man(a1-3)[Gal(b1-4)GlcNAc(b1-3)Gal(b1-4)GlcNAc(b1-2)Man(a1-6)]Man(b1-4)GlcNAc(b1-4)[Fuc(a1-6)]GlcNAc
# Outline: as §1
# [16] = molecular target: Gal(b1-4)GlcNAc(b1-3)Gal(b1-4)GlcNAc(b1-2)[Gal(b1-4)GlcNAc(b1-3)Gal(b1-4)GlcNAc(b1-6)]Man(a1-6)[Gal(b1-4)GlcNAc(b1-3)Gal(b1-4)GlcNAc(b1-2)Man(a1-3)]Man(b1-4)GlcNAc(b1-4)GlcNAc
# Outline: as §1
# [17] = molecular target: Gal(b1-4)GlcNAc(b1-3)Gal(b1-4)GlcNAc(b1-2)[Gal(b1-4)GlcNAc(b1-3)Gal(b1-4)GlcNAc(b1-6)]Man(a1-6)[Gal(b1-4)GlcNAc(b1-3)Gal(b1-4)GlcNAc(b1-2)Man(a1-3)]Man(b1-4)GlcNAc(b1-4)[Fuc(a1-6)]GlcNAc
# Outline: as §1
# [18] = molecular target: Gal(b1-4)GlcNAc(b1-3)Gal(b1-4)GlcNAc(b1-3)Gal(b1-4)GlcNAc
# Outline: as §1
# [19] = molecular target: Gal(b1-4)GlcNAc(b1-3)Gal(b1-4)GlcNAc(b1-3)Gal(b1-4)GlcNAc(b1-2)Man(a1-3)[Gal(b1-4)GlcNAc(b1-3)Gal(b1-4)GlcNAc(b1-3)Gal(b1-4)GlcNAc(b1-2)Man(a1-6)]Man(b1-4)GlcNAc(b1-4)GlcNAc
# Outline: as §1
# [20] = molecular target: Gal(b1-4)GlcNAc(b1-3)Gal(b1-4)GlcNAc(b1-3)Gal(b1-4)GlcNAc(b1-2)Man(a1-3)[Gal(b1-4)GlcNAc(b1-3)Gal(b1-4)GlcNAc(b1-3)Gal(b1-4)GlcNAc(b1-2)Man(a1-6)]Man(b1-4)GlcNAc(b1-4)[Fuc(a1-6)]GlcNAc
# Outline: as §1
# [21] = molecular target: Gal(b1-4)GlcNAc(b1-3)Gal(b1-4)GlcNAc(b1-3)Gal(b1-4)GlcNAc(b1-2)[Gal(b1-4)GlcNAc(b1-3)Gal(b1-4)GlcNAc(b1-3)Gal(b1-4)GlcNAc(b1-6)]Man(a1-6)[Gal(b1-4)GlcNAc(b1-3)Gal(b1-4)GlcNAc(b1-3)Gal(b1-4)GlcNAc(b1-2)Man(a1-3)]Man(b1-4)GlcNAc(b1-4)[Fuc(a1-6)]GlcNAc
# Outline: as §1
# [22] = molecular target: Gal(b1-4)GlcNAc(b1-3)Gal(b1-4)GlcNAc(b1-3)Gal(b1-4)GlcNAc(b1-3)Gal(b1-4)GlcNAc(b1-2)Man(a1-3)[Gal(b1-4)GlcNAc(b1-3)Gal(b1-4)GlcNAc(b1-3)Gal(b1-4)GlcNAc(b1-3)Gal(b1-4)GlcNAc(b1-2)Man(a1-6)]Man(b1-4)GlcNAc(b1-4)GlcNAc
# Outline: as §1
binder,measurement,setting,value
Epa10 (protein) MNEKIFRYLTLLFLFELARSLPVEDKLNIKKVFEKRAVDFTPFAHYPRPEGCSSPPNSVSVGLHMNLYNYPYLYVKPSTKGMFTNDTNSDADGETDGDSAGGIEGRAGQCWNPEYQDPNFPRFGYKQYGEFGASDNVNGDISWDHNEFTEGCKPVLAALPPGYNYPDEITFSNFTMVLSGYFKPKTSGVYKFELKADDFILFNFGAKNAFECCNREESIDNFGPYVAYAMWPNQADQELEVYLFEDSYYPLRLFYNNRDYHSKFKIGFYPPGQTTITFDFDGYLFMLDDTGNECRDSIRYRTVCDDKVVDDTTYSTRYSTSMVPGGGSDVITIYYIRMKCEEEDCLGQWDPINNVCYSPDDCADDGGYWNGQMCDQSCKLEGGIVNPDTGDCDKSCIESGGFLDENGNCDTTCRDDGGMLVEGQCDYQCKEAGGILVGDHCDTTCVDSGGKLNEDGTCDHSCRDQGGQLDENGECDTSCKDSGGMLIEGECDTSCKDEGGQLDDNNECINHCKDQGGIIDENGNCDTSCKDSGGKLDESGACDTSCRDDGGIIDENGNCNTTCRDDGGIIVGDHCDTSCRDAGGILIEDHCDTTCRDSGGKLNEDGTCDHSCRDQGGQLDENGKCDYSCKNGGGKLDEDGNCDMSCKENGGKLDENGDCDLSCKEDGGKLDGNGDCDYSCKEEGGVIDESGNCNTTCKDSGGQIIDGECNYGCIEVGGVVIDGECDTSCIDSGGILDGDGNCDRSCIESGGVLEDGACNTTCRDSGGQLNVDGTCDTSCRDDGGMLVEGQCDYQCKEAGGILEDGECVFPPTSSSTSETSSTTDQSSLQSDDSSMESSSTPMDSSTIESSSSEIITSESESESVPIASSSSEVMTSESESESIPILTSSSEIPIASSSSEIPVASSSSEIIIPESESESVPVASSSSEIPIASSSSEIPVASSSSEIPVASSSSEIIIPESESESIPIESTSSEAVSSRSESDSSYPTPTPTTTTITTWPNPIQPTTSNSSPIVSSSTETPGIAESSSRISDLESSRRTSILGDDRTRTRTTITSTITEDGQIITITTTVTGFVPEPTGETEGNGSDDENPENPIENNTDENEFLDPEFTDDIPDDPAGPEDNGNGPVNPEQGNDNDPVNLEDSGNNGAVNPEQAPVNDEDNGGNDPVNPEQDNNNGPANPGQDSTNGSGNSDQIDNNPPTPEENAGDGNSNGNDPADPSRRTSILGDERTRASPGGTSQPTGANGNVNGNSPGANVNGGGTGNSNNNNNNNNNNNNGNAPNGGDGSNGDANQGPSRRTSLLGDERTRAGQAAPTGGSSPDNGIAGDTSNNGGAIVSQQVDDGGAGSPRRTSILGDVRSRTTLNGEVLNFEGSGVRRAVAGNLALPLMMVGLVFNL,glycan array binding signal (z-score),[1],-0.272
same,glycan array binding signal (z-score),[2],0.119
same,glycan array binding signal (z-score),[3],0.12
same,glycan array binding signal (z-score),[4],-0.21
same,glycan array binding signal (z-score),[5],0.053
same,glycan array binding signal (z-score),[6],-0.054
same,glycan array binding signal (z-score),[7],0.132
same,glycan array binding signal (z-score),[8],-0.174
same,glycan array binding signal (z-score),[9],0.014
same,glycan array binding signal (z-score),[10],-0.228
same,glycan array binding signal (z-score),[11],-0.236
same,glycan array binding signal (z-score),[12],-0.234
same,glycan array binding signal (z-score),[13],-0.078
same,glycan array binding signal (z-score),[14],0.222
same,glycan array binding signal (z-score),[15],0.185
same,glycan array binding signal (z-score),[16],0.211
same,glycan array binding signal (z-score),[17],0.264
same,glycan array binding signal (z-score),[18],-0.023
same,glycan array binding signal (z-score),[19],0.28
same,glycan array binding signal (z-score),[20],0.17
same,glycan array binding signal (z-score),[21],0.654
same,glycan array binding signal (z-score),[22],0.466
